# In paper PMC4336329 (PLoS ONE, 2015):
# In all, about 310,000 compounds went through this assay and about 14,000 (4.5%) showed an effect of 50% or more. The effect is printed as a negative number. This is one part of the list.
# Target: human ether-à-go-go-related gene (hERG) potassium channel (human, UniProt Q12809)
# Experiment: primary screen, population patch clamp on CHO cells stably expressing hERG
# 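Further: peak tail current of the secondary pulse compared with the same well before compound.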
# Sequence of human ether-à-go-go-related gene (hERG) potassium channel (Q12809 whole entry, looked up): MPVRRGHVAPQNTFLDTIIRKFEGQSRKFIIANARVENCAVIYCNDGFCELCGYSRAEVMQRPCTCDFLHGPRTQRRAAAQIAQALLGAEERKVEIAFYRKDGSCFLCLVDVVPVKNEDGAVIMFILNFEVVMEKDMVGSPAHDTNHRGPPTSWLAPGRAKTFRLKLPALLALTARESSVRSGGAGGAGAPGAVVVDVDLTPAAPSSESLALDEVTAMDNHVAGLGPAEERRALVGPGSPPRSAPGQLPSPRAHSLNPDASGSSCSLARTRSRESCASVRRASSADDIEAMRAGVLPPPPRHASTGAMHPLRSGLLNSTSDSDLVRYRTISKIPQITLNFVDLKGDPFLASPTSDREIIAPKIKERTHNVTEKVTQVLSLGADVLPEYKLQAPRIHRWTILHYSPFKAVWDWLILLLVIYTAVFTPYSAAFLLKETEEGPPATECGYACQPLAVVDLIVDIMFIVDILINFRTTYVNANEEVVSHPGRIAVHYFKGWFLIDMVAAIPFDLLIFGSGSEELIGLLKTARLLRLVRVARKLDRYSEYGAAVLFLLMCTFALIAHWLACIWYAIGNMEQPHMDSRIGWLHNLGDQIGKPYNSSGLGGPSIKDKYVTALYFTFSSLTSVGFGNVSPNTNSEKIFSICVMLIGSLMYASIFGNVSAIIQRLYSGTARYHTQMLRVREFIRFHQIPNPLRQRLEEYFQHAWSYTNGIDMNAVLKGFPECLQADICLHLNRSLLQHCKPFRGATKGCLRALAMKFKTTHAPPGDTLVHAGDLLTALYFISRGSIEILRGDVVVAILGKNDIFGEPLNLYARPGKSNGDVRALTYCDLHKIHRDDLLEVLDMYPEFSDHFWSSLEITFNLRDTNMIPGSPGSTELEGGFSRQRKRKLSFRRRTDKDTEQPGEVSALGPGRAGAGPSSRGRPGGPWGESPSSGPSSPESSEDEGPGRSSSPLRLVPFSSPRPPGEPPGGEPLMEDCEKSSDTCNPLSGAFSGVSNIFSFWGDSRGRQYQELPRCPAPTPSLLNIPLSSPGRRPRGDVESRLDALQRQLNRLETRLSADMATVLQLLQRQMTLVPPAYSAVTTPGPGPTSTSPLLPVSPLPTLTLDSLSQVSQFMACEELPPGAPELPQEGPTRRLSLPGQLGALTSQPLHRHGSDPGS
row,Structure (SMILES),"hERG current change (%, negative = inhibition) at 10uM [%]"
1,COc1cc(C(=O)NCCSc2ccc(Br)cc2)cc(OC)c1OC,6.33
2,CCc1c(C)nc2ncnn2c1NCCc1ccccc1,-15.2
3,Oc1ccc(Cl)cc1CNc1nccs1,14.4
4,O=C(CSc1ccc(-c2cccc([N+](=O)[O-])c2)nn1)N1CCCCC1,-1.31
5,O=C(CCOc1ccccc1)Nc1ccc(S(=O)(=O)N2CCCC2)cc1,-17.1
6,COc1ccccc1C(=O)COC(=O)c1cccc(S(=O)(=O)N2CCCC2)c1,-1.47
7,CCOc1cc(/C=C2\C(=N)N3N=C(S(=O)(=O)CC)SC3=NC2=O)ccc1OC(=O)c1ccco1,2.4
8,CN(C(=O)CSc1nnnn1-c1ccccc1)C1CCCCC1,-21.7
9,COc1ccc(C2=NN(c3ccc(C=O)cc3)C(c3ccccc3)C2)cc1 (stereo not drawn),18.9
10,CC(C)(C)C(=O)O/N=C(\N)c1ccc(-c2csnn2)cc1,-3.82
11,CCS(=O)(=O)N1CCC(C(=O)Nc2ccc3c(c2)CCC3)CC1,-4.33
12,Cn1c2c(c(=O)n(C)c1=O)C(CC(=O)Nc1ccc(F)cc1)C(=O)N2 (stereo not drawn),3.05
13,COCCNC(=O)C(c1ccc(F)cc1)N(Cc1ccco1)C(=O)CCC(=O)Nc1nccs1 (stereo not drawn),-1.78
14,CCOC(=O)C1CCCN(C(=O)c2ccc(C)c(S(=O)(=O)N3CCCCC3)c2)C1 (stereo not drawn),-25.3
15,COc1ccc(C2OCC3(CO2)SC(=O)NC3=O)cc1OC (stereo not drawn),10.6
16,Cc1cc(C)n2nc(S(=O)(=O)NC3CCCCC3)nc2n1,8.17
17,Cc1c(O)cccc1C(=O)N[C@@H](CSc1ccccc1)[C@H](O)CN1C[C@H]2CCCC[C@H]2C[C@H]1C(=O)NC(C)(C)C,8.75
18,C=CCn1c(=O)c2ccccc2n2c(SCc3nc(N)nc(Nc4ccccc4C)n3)nnc12,-26.8
19,N#Cc1sc2nc3c(c(-c4cccnc4)c2c1N)CCC3,-12
20,CNC(=O)CSc1nc2cc(S(=O)(=O)Nc3ccccc3OC)ccc2o1,11.5
21,O=C(CSc1ccccc1F)NCC1(N2CCCCC2)CCCCC1,-17.3
22,CN(C)C=O.Cc1ccc(-c2cc(-c3n[nH]c(=S)o3)c3ccccc3n2)cc1,31

row,Structure (SMILES),"hERG current change (%, negative = inhibition) at 10uM [%]"
1,Cc1ccc(C(=O)Oc2cccc(NC(=O)c3cccs3)c2)cc1S(=O)(=O)N1CCOCC1,-20.7
2,OCCNCCO,-2.71
3,CCCCN(C)S(=O)(=O)c1ccc(C(=O)N(CCN(C)C)c2nc3ccc(C)cc3s2)cc1.Cl,-43.4
4,CCc1nnc(SCC(=O)NC2CCCC2)nc1CC,-3.08
5,Cc1ccc(C2N(c3ccccn3)C(=O)C3CCCN32)o1 (stereo not drawn),1.96
6,CCN(CC)CC1C(=O)N(c2ccc(OC)cc2)C1c1ccccc1 (stereo not drawn),-19.8
7,C=C1C(O)(c2ccccc2)C2CC[N+]1(C)CC2.[Cl-] (stereo not drawn),11.7
8,COc1ccc(-c2nnc(SCC(=O)NCc3cccs3)n2CC(C)C)cc1,-15.2
9,O=C(C1CCN(C2CCN(Cc3cccc4c3OCO4)CC2)CC1)N1CCOCC1,-34.7
10,CCn1c(SCc2ccccc2)nc2c(c1=O)SCC2,-26
11,O=C(CSc1nnc(-c2ccncc2)n1C1CCCCC1)Nc1cccc(O)c1,-5.93
12,O=C(Cn1c(C2CC2)nc2ccccc2c1=O)Nc1ccc(Br)cc1,3.32
13,Cc1ccc(NC(=O)c2ccccc2Cl)cc1-n1cnnn1,-38.9
14,CC(OC(=O)Cc1coc2ccc3ccccc3c12)C(=O)NC(N)=O (stereo not drawn),13.8
15,Fc1ccc(NC(=S)N/N=C/c2ccc(F)c(F)c2)c(F)c1,13
16,NC(=O)c1ccc(NC(=O)CS(=O)(=O)c2cn(CC(=O)N3CCCC3)c3ccccc23)cc1,-5.79
17,O=C(O)[C@@H]1CCCN1C(=O)c1ccco1,5.4
18,C=CCCC(=O)Nc1nc(C)c(-c2csc(Nc3cccc(OC)c3)n2)s1,-20.1
19,Cc1ccc(-c2ccc(SCC(=O)Nc3ccc4c(c3)OCCO4)nn2)cc1,-1.55
20,COc1ccccc1NS(=O)(=O)c1ccc(C(=O)N2CCCC(C)C2)cc1 (stereo not drawn),-2.43
21,CN(C(=O)Oc1ccc([N+](=O)[O-])cc1)c1ccccc1,-11.5
22,N#CCCn1cc(C(=O)Nc2ccc(C(=O)O)cc2)c(-c2ccc([N+](=O)[O-])cc2)n1,23.2

row,Structure (SMILES),"hERG current change (%, negative = inhibition) at 10uM [%]"
1,O=C(CSc1nnc(NC2CCCCC2)s1)NC1CCS(=O)(=O)C1 (stereo not drawn),-0.507
2,COc1ccccc1OCCNC(=O)CC(NC(C)=O)c1ccccc1 (stereo not drawn),26.1
3,CCCCn1c(N)c(N(CCOC)C(=O)C2CC(=O)N(Cc3ccc(C)cc3)C2)c(=O)[nH]c1=O (stereo not drawn),-13.3
4,CC(C)(CN1CCCCC1)NS(=O)(=O)c1ccc(Cl)cc1,-13.4
5,COC(=O)c1cc(OC)c(OC)cc1N1C(=O)CC(C)(C)CC1=O,15.4
6,O=S(=O)(Cc1cc(-c2ccccc2)no1)c1ccccc1,-2.75
7,O=C(OCc1ccccc1Cl)C1CC(=O)N(Cc2ccco2)C1 (stereo not drawn),11.4
8,CC(C(=O)O)N(C(=O)c1ccccc1)c1ccc(F)c(Cl)c1 (stereo not drawn),14.4
9,CCN(CC(=O)Nc1ccccc1C(F)(F)F)C(=O)CSCc1ccc(C)cc1,9.52
10,CCOc1ccccc1C(=O)Nc1cc(C)ccc1NC(=O)c1ccco1,-75.3
11,COc1cccc(OCc2cc(/C=N/NC(=O)c3ccn[nH]3)ccc2OC)c1,4.71
12,CCS(=O)(=O)N1Cc2ccccc2CC1C(=O)N(C)CC(=O)Nc1ccc(F)c(F)c1F (stereo not drawn),-8.88
13,Cc1ccc(NC(=O)C2CCCN(S(=O)(=O)c3cccs3)C2)cc1 (stereo not drawn),0.928
14,COc1ccc(CN2CCC(C(=O)c3ccc(Cl)cc3)CC2)cc1,-78.7
15,Cc1c(C)n(CCCN(C)C)c2ncnc(Nc3ccccc3)c12,-29.3
16,COc1ccc(CCN(Cc2cc3cc(C)cc(C)c3nc2Cl)C(=O)C2CC2)cc1,14.5
17,Cc1ccsc1/C=N/Nc1cccc(C(=O)O)c1,15.9
18,O=C(Nc1ccccc1)c1ccccc1O,8.51
19,COc1ccc(C(=O)O)c(OC)n1,8.66
20,O=S(=O)(c1ccc(Cl)cc1)N1CCN(S(=O)(=O)N2CCCCCC2)CC1,21.1
21,O=C1COc2ccc(C(=O)COC(=O)C3CCN(S(=O)(=O)c4cccs4)CC3)cc2N1,-11
22,CCCOc1ccc(/C(O)=C2/C(=O)C(=O)N(CCCn3ccnc3)C2c2cccs2)cc1 (stereo not drawn),34.3

row,Structure (SMILES),"hERG current change (%, negative = inhibition) at 10uM [%]"
1,CCCCC1=CC2=C(c3ccco3)C(=O)C(C)(OC(=O)c3ccc(OC)cc3)C(=O)C2=CN1C1CCCC1 (stereo not drawn),-8.17
2,CCc1nnc(NS(=O)(=O)c2ccc(N3C(=O)c4ccccc4C3=O)cc2)s1,18.1
3,CC(=O)N1CCN(CC(O)Cn2c3ccccc3c3ccccc32)CC1 (stereo not drawn),7.81
4,O=C(O)c1ccc(S(=O)(=O)N2CCCCCC2)cc1,12.6
5,Cc1ccnc(NC(=O)c2ccccc2NC(=O)c2ccc(Cl)cc2Cl)c1,-1.05
6,CCN1C(=O)/C(=C/C2=Cc3ccccc3OC2C)SC1=S (stereo not drawn),14.7
7,Cc1ccc(S(=O)(=O)Nc2ccncc2)c(C)c1N(C)S(=O)(=O)c1ccc(F)cc1,12.1
8,COc1cc(NC(C(=O)Nc2cccc(C(C)=O)c2)c2ccccc2)cc(OC)c1OC (stereo not drawn),-7.54
9,O=C(c1ccccc1)[C@@H]1[C@@H](C(=O)c2ccc(F)cc2)[C@@]2(C(=O)Nc3ccccc32)[C@H]2c3ccccc3C=CN12,1.2
10,Cc1ccc(S(=O)(=O)NC(C)CCc2ccccc2)cc1C(N)=O (stereo not drawn),-3.11
11,CCCCN1CCNC[C@@H]1Cc1ccc(O)cc1,16
12,Cn1nnnc1SCC(=O)Nc1nc2c(s1)CCCC2,-8.16
13,COc1ccc(Nc2nc(N)nc(CSc3nccc(C)n3)n2)cc1,6.43
14,Cc1ccc(CCNS(=O)(=O)c2ccc3c(c2)NC(=O)CCS3)cc1,0.516
15,COc1ccc(-n2ncc3c(=O)n(CC(=O)OCc4ccccc4)cnc32)cc1,15
16,Cc1cc(NC(=O)CSc2nnc(Nc3ccccc3C)s2)no1,-1.11
17,Cc1cc(N2CCCC2=O)ccc1S(=O)(=O)N1CCOCC1,3.6
18,CCS(=O)(=O)c1nc(S(=O)(=O)c2ccc(C)cc2)c(NCCCN2CCCC2=O)s1,-11.3
19,Cc1nn(Cc2ccccc2Cl)c(C)c1C(=O)NCc1ccco1,-2.41
20,CCN(CC(=O)Nc1ccccc1OC)C(=O)C1CC2C=CC1C2 (stereo not drawn),18.2
21,COCCNC(=O)Cn1c(=O)oc2cc(S(=O)(=O)N3CC(C)CC(C)C3)ccc21 (stereo not drawn),11.5
